The list shows a part of the results.
Experiments:
HSkMC = human skeletal muscle cells; experiment: cytotoxicity call (relative viability < 0.9); conditions: 10 µM
HepG2 = experiment: cytotoxicity call (relative viability < 0.9); conditions: 10 µM
S. aureus RN4220 = experiment: growth inhibition call (relative growth <= 0.2); conditions: 50 µM

Row | SMILES | cytotoxicity call (HSkMC) | cytotoxicity call (HepG2) | growth inhibition call (S. aureus RN4220)
1 | OCC(CO)NC1CC(O)(CO)C(O)C(O)C1O (stereo not given) | inactive | inactive | inactive
2 | COc1ccc(S(=O)(=O)Nc2ccc3c(c2)C(=O)N([C@@H](C)CO)C[C@H](C)[C@H](CN(C)C(=O)Nc2cccc4ccccc24)OCCCC[C@H](C)O3)cc1 | inactive | active | inactive
3 | Cn1cc(C(F)(F)F)ccc1=S | inactive | inactive | inactive
4 | COc1ccc(S(=O)(=O)N[C@@H]2C=C[C@H](CC(=O)NCCc3ccncc3)O[C@H]2CO)cc1 | inactive | inactive | inactive
5 | C[C@H]1CN([C@@H](C)CO)C(=O)Cc2cc(NC(=O)c3ccncc3)ccc2O[C@H]1CN(C)C(=O)NC1CCCCC1 | inactive | inactive | inactive
6 | O=C(C[C@H]1CC[C@H]2[C@@H](COC[C@H](O)CN2S(=O)(=O)c2ccccc2)O1)NCCN1CCCCC1 | inactive | inactive | inactive
7 | Cc1noc(C)c1NC(=O)Nc1ccc2c(c1)C(=O)N([C@H](C)CO)C[C@@H](C)[C@H](CN(C)Cc1ccc3c(c1)OCO3)OCCCC[C@H](C)O2 | inactive | inactive | inactive
8 | COc1ccc(NC(=O)N(C)C[C@H]2Oc3ccc(NC(=O)Cn4cnnn4)cc3C(=O)N([C@H](C)CO)C[C@@H]2C)cc1 | inactive | inactive | inactive
9 | C[C@@H]1CN([C@H](C)CO)C(=O)c2cccc(NC(=O)CCCCCC(=O)Nc3ccccc3N)c2O[C@@H]1CN(C)C(=O)Nc1ccc(F)cc1 | inactive | inactive | inactive
10 | COc1ccc(S(=O)(=O)Nc2ccc3c(c2)CC(=O)N([C@@H](C)CO)C[C@@H](C)[C@@H](CN(C)Cc2ccncc2)O3)cc1 | inactive | inactive | inactive
11 | COc1ccccc1CNC(=O)C[C@@H]1C[C@H]2c3cc(NC(=O)c4cccnc4)ccc3O[C@H]2[C@@H](CO)O1 | inactive | inactive | inactive
12 | COc1ccc(N2C(=O)N(CCc3ccc(OC)c(OC)c3)[C@@H]3[C@@H](Cc4ccccc4)[C@H]2C(=O)N3Cc2ccccc2)cc1 | inactive | inactive | inactive
13 | C[C@H]1CN([C@@H](C)CO)C(=O)c2c(c3ccccc3n2C)-c2ccccc2CO[C@@H]1CN(C)Cc1ccc2c(c1)OCO2 | inactive | inactive | inactive
14 | Cc1ccc(S(=O)(=O)Nc2ccc3c(c2)C(=O)N([C@H](C)CO)C[C@@H](C)[C@@H](CN(C)Cc2ccc(Oc4ccccc4)cc2)O3)cc1 | active | active | inactive
15 | C[C@@H]1CN([C@@H](C)CO)C(=O)c2cccc(NC(=O)Nc3ccccc3)c2O[C@H]1CN(C)Cc1ccc(Cl)c(Cl)c1 | inactive | active | inactive
16 | C[C@@H]1CN([C@@H](C)CO)C(=O)c2cc(NS(=O)(=O)c3cccs3)ccc2O[C@H]1CN(C)Cc1ccc(-c2ccccc2)cc1 | inactive | inactive | inactive
17 | Cc1ccc(S(=O)(=O)Nc2ccc3c(c2)CC(=O)N([C@H](C)CO)C[C@@H](C)[C@@H](CN(C)S(=O)(=O)c2cn(C)cn2)O3)cc1 | inactive | inactive | inactive
18 | C[C@@H]1CN([C@H](C)CO)C(=O)c2cc(NS(=O)(=O)c3cn(C)cn3)ccc2O[C@@H](C)CCCCO[C@@H]1CN(C)C(=O)CCCN(C)C | inactive | inactive | inactive
19 | C[C@@H]1CN([C@H](C)CO)C(=O)c2c(c3ccccc3n2C)-c2ccccc2CO[C@H]1CN(C)Cc1ccc(-c2ccccc2)cc1 | inactive | inactive | inactive
20 | COc1ccc(NC(=O)Nc2ccc3c(c2)C(=O)N([C@@H](C)CO)C[C@H](C)[C@@H](CN(C)S(=O)(=O)c2ccc(OC)cc2)OCCCC[C@@H](C)O3)cc1 | inactive | inactive | inactive
21 | Cc1ccc(S(=O)(=O)Nc2ccc3c(c2)C(=O)N([C@H](C)CO)C[C@H](C)[C@@H](CN(C)S(=O)(=O)c2ccc(Cl)cc2)OCCCC[C@@H](C)O3)cc1 | inactive | active | inactive
22 | C[C@@H]1CN([C@@H](C)CN=[N+]=[N-])C(=O)c2cc(NC(=O)Nc3ccccc3)ccc2O[C@@H](C)CCCCO[C@H]1CN(C)S(=O)(=O)c1ccc(F)cc1 | inactive | active | inactive
23 | O=c1[nH]c(=O)n([C@H]2C[C@H](O)[C@@H](CO)O2)cc1CO | inactive | inactive | inactive
24 | C[C@@H]1CN([C@H](C)CO)S(=O)(=O)c2ccc(C#Cc3ccccc3)cc2O[C@H]1CN(C)S(=O)(=O)c1cn(C)cn1 | inactive | inactive | inactive
25 | CO[C@H]1CN(C)C(=O)c2ccc(NC(=O)c3ccc(F)cc3)cc2OC[C@@H](C)N(C(=O)CN(C)C)C[C@H]1C | inactive | inactive | inactive
26 | COc1ccccc1CNC(=O)C[C@H]1CC[C@H]2[C@@H](COC[C@H](O)CN2C(=O)Nc2ccc(Cl)cc2)O1 | inactive | inactive | active
27 | CCN([NH2+][O-])c1ccc(O)c(O)c1 | inactive | inactive | inactive
28 | CN(C)CCCNC(=O)C[C@H]1CC[C@H]2[C@H](COc3ccc(NC(=O)c4ccccc4F)cc3C(=O)N2C)O1 | inactive | inactive | inactive

Row | SMILES | cytotoxicity call (HSkMC) | cytotoxicity call (HepG2) | growth inhibition call (S. aureus RN4220)
29 | C[C@@H]1CCCCO[C@@H](CN(C)S(=O)(=O)c2cn(C)cn2)[C@H](C)CN([C@@H](C)CO)C(=O)c2cc(NC(=O)Nc3ccc(C(F)(F)F)cc3)ccc2O1 | inactive | inactive | inactive
30 | C[C@@H]1CN([C@@H](C)CO)C(=O)Cc2cc(NC(=O)Nc3ccc(C(F)(F)F)cc3)ccc2O[C@H]1CN(C)CC1CCCCC1 | active | active | inactive
31 | C[C@@H]1CN([C@@H](C)CO)C(=O)Cc2cc(NC(=O)CCCCCC(=O)Nc3ccccc3N)ccc2O[C@@H]1CN(C)C(=O)Nc1cccc2ccccc12 | inactive | inactive | inactive
32 | C[C@@H]1CN([C@H](C)CO)C(=O)c2cccc(NC(=O)CCCCCC(=O)Nc3ccccc3N)c2O[C@@H]1CN(C)Cc1ccc(C(F)(F)F)cc1 | inactive | inactive | inactive
33 | COc1cccc(-c2ccc3c(c2)O[C@@H](CN(C)C(=O)C2CC2)[C@@H](C)CN([C@@H](C)CO)S3(=O)=O)c1 | inactive | inactive | inactive
34 | C[C@H](CO)N1C[C@H](C)[C@H](CN(C)C(=O)Nc2ccc(C(F)(F)F)cc2)Oc2ccc(NC(=O)NC3CCCCC3)cc2CC1=O | inactive | inactive | inactive
35 | CC(C)c1ccc(C(C)(C)CO)cc1 | inactive | inactive | inactive
36 | Cc1ccc(S(=O)(=O)N[C@@H]2C=C[C@@H](CC(=O)NCCN3CCCCC3)O[C@@H]2CO)cc1 | inactive | inactive | inactive
37 | C[C@H]1CN([C@@H](C)CO)C(=O)c2cccc(NC(=O)c3cnccn3)c2O[C@H]1CN(C)C(=O)NC1CCCCC1 | inactive | inactive | inactive
38 | S=c1cc(-c2ccccc2)oc(-c2ccccc2)c1 | inactive | active | inactive
39 | C[C@H](CO)N1C[C@H](C)[C@H](CN(C)C(=O)Cc2ccccc2)OCCCC[C@H](C)Oc2ccc(NC(=O)C3CCCCC3)cc2C1=O | inactive | inactive | inactive
40 | CO[C@@H]1CN(C)C(=O)c2cc(NC(=O)Nc3ccccc3F)ccc2OC[C@@H](C)N(C(=O)Nc2ccccc2F)C[C@H]1C | inactive | inactive | inactive
41 | C[C@H](CO)N1C[C@H](C)[C@@H](CN(C)C(=O)c2ccc3c(c2)OCO3)Oc2ncc(C#Cc3ccccc3F)cc2C1=O | inactive | inactive | inactive
42 | COc1ccc(-c2nc3cc(C4=NNC(=O)CC4C)ccc3[nH]2)cc1 (stereo not given) | inactive | inactive | inactive
43 | COCCn1c(=NN)[nH]c2ccsc2c1=O | inactive | inactive | inactive
44 | C[C@@H]1CN([C@@H](C)CO)S(=O)(=O)c2ccc(Br)cc2O[C@H]1CN(C)C(=O)c1ccncc1 | inactive | inactive | inactive
45 | Cc1noc(C)c1S(=O)(=O)Nc1ccc2c(c1)CC(=O)N([C@@H](C)CO)C[C@@H](C)[C@H](CN(C)S(=O)(=O)c1cccs1)O2 | inactive | inactive | inactive
46 | CCCCCN1CC=C[C@@]23O[C@@H]4C=CCOC(=O)[C@@H]4[C@H]2C(=O)N([C@@H](C)CO)[C@@H]3C1=O | inactive | inactive | inactive
47 | C[C@H]1CN([C@@H](C)CO)C(=O)c2cccc(NC(=O)Nc3cccc4ccccc34)c2O[C@H]1CN(C)Cc1ccc(Oc2ccccc2)cc1 | inactive | active | inactive
48 | C[C@@H]1CN([C@@H](C)CO)C(=O)c2cc(NS(=O)(=O)c3cn(C)cn3)ccc2O[C@H]1CN(C)C(=O)Nc1ccccc1 | inactive | inactive | inactive
49 | C[C@H](CO)N1C[C@H](C)[C@H](CN(C)S(=O)(=O)c2cn(C)cn2)Oc2c(NS(=O)(=O)c3cccs3)cccc2C1=O | inactive | inactive | inactive
50 | C[C@]12NC(=O)N[C@H](c3ccccc3O1)[C@H]2CO | inactive | inactive | inactive
51 | CC(=O)O[C@@H]1[C@@H]2OC(=O)[C@H](OC(C)=O)[C@@H]2O[C@H]1n1ccc(=O)[nH]c1=O | inactive | inactive | inactive
52 | C[C@@H]1CCCCO[C@H](CN(C)C(=O)Nc2ccc3c(c2)OCO3)[C@H](C)CN([C@H](C)CO)C(=O)c2cc(NC(=O)c3ccccc3)ccc2O1 | inactive | inactive | inactive
53 | C[C@@H]1CN([C@@H](C)CO)C(=O)c2cc(NC(=O)Cc3cn(C)c4ccccc34)ccc2O[C@H]1CN(C)C(=O)Nc1cccc2ccccc12 | inactive | inactive | inactive
54 | C[C@@H]1CCCCO[C@@H](CN(C)C(=O)Nc2cccc3ccccc23)[C@H](C)CN([C@H](C)CO)C(=O)c2cc(NC(=O)Nc3ccc4c(c3)OCO4)ccc2O1 | inactive | inactive | inactive
55 | Cc1noc(C)c1NC(=O)Nc1ccc2c(c1)C(=O)N([C@H](C)CO)C[C@@H](C)[C@@H](CN(C)S(=O)(=O)c1c(C)noc1C)O2 | inactive | inactive | inactive
